Reference: the supplement of paper PMC8728848
Some of the results follow.

Experiments:
Experiment in all cases: glycan array binding signal (z-score within array); higher = stronger binding
Conditions in all cases: glycan notation: IUPAC condensed, linker removed
[1] = target: Fuc(a1-2)Gal
How it was run: (§1)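 The binding signal is a Z-score computed within each array. Data were drawn from 3228 arrays in the Consortium for Functional Glycomics database, restricted to those with a known protein sequence. Scores were averaged over arrays of the same protein sequence at different concentrations or buffers, and over linkers, and negative values can be taken as non-binding.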

[2] = target: Fuc(a1-2)Gal(b1-3)GalNAc
How it was run: as §1

[3] = target: Fuc(a1-2)Gal(b1-3)GalNAc(a1-3)[Fuc(a1-2)]Gal(b1-4)Glc
How it was run: as §1

[4] = target: Fuc(a1-2)Gal(b1-3)GalNAc(a1-3)[Fuc(a1-2)]Gal(b1-4)GlcNAc
How it was run: as §1

[5] = target: Fuc(a1-2)Gal(b1-3)GalNAc(b1-3)Gal
How it was run: as §1

[6] = target: Fuc(a1-2)Gal(b1-3)GalNAc(b1-3)Gal(a1-4)Gal(b1-4)Glc
How it was run: as §1

[7] = target: Fuc(a1-2)Gal(b1-3)GalNAc(b1-4)[Neu5Ac(a2-3)]Gal(b1-4)Glc
How it was run: as §1

[8] = target: Fuc(a1-2)Gal(b1-3)GlcNAc
How it was run: as §1

[9] = target: Fuc(a1-2)Gal(b1-3)GlcNAc(b1-2)Man(a1-3)[Fuc(a1-2)Gal(b1-3)GlcNAc(b1-2)Man(a1-6)]Man(b1-4)GlcNAc(b1-4)GlcNAc
How it was run: as §1

[10] = target: Fuc(a1-2)Gal(b1-3)GlcNAc(b1-2)Man(a1-3)[Fuc(a1-2)Gal(b1-3)GlcNAc(b1-2)Man(a1-6)]Man(b1-4)GlcNAc(b1-4)[Fuc(a1-6)]GlcNAc
How it was run: as §1

[11] = target: Fuc(a1-2)Gal(b1-3)GlcNAc(b1-3)Gal(b1-4)Glc
How it was run: as §1

[12] = target: Fuc(a1-2)Gal(b1-3)GlcNAc(b1-3)GalNAc
How it was run: as §1

[13] = target: Fuc(a1-2)Gal(b1-3)GlcNAc(b1-3)[Fuc(a1-2)Gal(b1-3)GlcNAc(b1-6)]GalNAc
How it was run: as §1

[14] = target: Fuc(a1-2)Gal(b1-3)GlcNAc(b1-3)[Gal(b1-4)GlcNAc(b1-6)]Gal(b1-4)Glc
How it was run: as §1

[15] = target: Fuc(a1-2)Gal(b1-3)GlcNAc(b1-3)[Neu5Ac(a2-6)Gal(b1-4)GlcNAc(b1-6)]Gal(b1-4)Glc
How it was run: as §1

[16] = target: Fuc(a1-2)Gal(b1-3)GlcNAc6S
How it was run: as §1

[17] = target: Fuc(a1-2)Gal(b1-3)[Fuc(a1-4)]GlcNAc
How it was run: as §1

[18] = target: Fuc(a1-2)Gal(b1-3)[Fuc(a1-4)]GlcNAc(b1-2)Man(a1-3)[Fuc(a1-2)Gal(b1-3)[Fuc(a1-4)]GlcNAc(b1-2)Man(a1-3)]Man(b1-4)GlcNAc(b1-4)GlcNAc
How it was run: as §1

[19] = target: Fuc(a1-2)Gal(b1-3)[Fuc(a1-4)]GlcNAc(b1-2)Man(a1-3)[Fuc(a1-2)Gal(b1-3)[Fuc(a1-4)]GlcNAc(b1-2)Man(a1-6)]Man(b1-4)GlcNAc(b1-4)[Fuc(a1-6)]GlcNAc(b1-4)[Fuc(a1-6)]GlcNAc
How it was run: as §1

[20] = target: Fuc(a1-2)Gal(b1-3)[Fuc(a1-4)]GlcNAc(b1-3)[Fuc(a1-3)[Gal(b1-4)]GlcNAc(b1-6)]Gal(b1-4)Glc
How it was run: as §1

[21] = target: Fuc(a1-2)Gal(b1-3)[Fuc(a1-4)]GlcNAc(b1-3)[Gal(b1-4)GlcNAc(b1-6)]Gal(b1-4)Glc
How it was run: as §1

[22] = target: Fuc(a1-2)Gal(b1-4)Fuc(a1-3)]GlcNAc(b1-2)Man(a1-3)[Fuc(a1-2)Gal(b1-4)[Fuc(a1-3)]GlcNAc(b1-2)Man(a1-6)]Man(b1-4)GlcNAc(b1-4)GlcNAc
How it was run: as §1

[23] = target: Fuc(a1-2)Gal(b1-4)Glc
How it was run: as §1

[24] = target: Fuc(a1-2)Gal(b1-4)Glc6S
How it was run: as §1

[25] = target: Fuc(a1-2)Gal(b1-4)GlcNAc
How it was run: as §1

[26] = target: Fuc(a1-2)Gal(b1-4)GlcNAc(b1-2)Man
How it was run: as §1

[27] = target: Fuc(a1-2)Gal(b1-4)GlcNAc(b1-2)Man(a1-3)[Fuc(a1-2)Gal(b1-4)GlcNAc(b1-2)Man(a1-6)]Man(b1-4)GlcNAc(b1-4)GlcNAc
How it was run: as §1

[28] = target: Fuc(a1-2)Gal(b1-4)GlcNAc(b1-2)Man(a1-3)[Fuc(a1-2)Gal(b1-4)GlcNAc(b1-2)Man(a1-6)]Man(b1-4)GlcNAc(b1-4)[Fuc(a1-6)]GlcNAc
How it was run: as §1

[29] = target: Fuc(a1-2)Gal(b1-4)GlcNAc(b1-2)[Fuc(a1-2)Gal(b1-4)GlcNAc(b1-4)]Man(a1-3)[Fuc(a1-2)Gal(b1-4)GlcNAc(b1-2)Man(a1-6)]Man(b1-4)GlcNAc(b1-4)GlcNAc
How it was run: as §1

[30] = target: Fuc(a1-2)Gal(b1-4)GlcNAc(b1-3)Gal(b1-4)GlcNAc
How it was run: as §1

B1: BC2LB (Burholderia cenocepacia), B4EH85_BURCJ (protein)
chain: MGSSHHHHHHSSGENLYFQGHMSQPFTHDDLYALLQLAGNDATAVQANGDQAVLDRMRQFMTAQLVEKLPQYDVFVDIATIPYSFDVGSWQNKVKTDAAGEVVACTVTWAGAPGVLPGAAAKFGVGAVVNYFSKATPH
With B1 the “glycan array binding signal (z-score)” value [1] was -0.021, the “glycan array binding signal (z-score)” value [2] was -0.215 and the “glycan array binding signal (z-score)” value [3] was -0.176. The “glycan array binding signal (z-score)” value [4] was -0.327, the “glycan array binding signal (z-score)” value [5] was -0.141 and the “glycan array binding signal (z-score)” value [6] was -0.185. The “glycan array binding signal (z-score)” value [7] was -0.296, the “glycan array binding signal (z-score)” value [8] was -0.241 and the “glycan array binding signal (z-score)” value [9] was 0.171. For the same binder, the “glycan array binding signal (z-score)” value [10] was -0.135, the “glycan array binding signal (z-score)” value [11] was -0.248 and the “glycan array binding signal (z-score)” value [12] was -0.33. The “glycan array binding signal (z-score)” value [13] was -0.166, the “glycan array binding signal (z-score)” value [14] was -0.289 and the “glycan array binding signal (z-score)” value [15] was -0.361. For the same binder, the “glycan array binding signal (z-score)” value [16] was 0.992, the “glycan array binding signal (z-score)” value [17] was -0.105 and the “glycan array binding signal (z-score)” value [18] was 0.293. For the same binder, the “glycan array binding signal (z-score)” value [19] was -0.167, the “glycan array binding signal (z-score)” value [20] was -0.191 and the “glycan array binding signal (z-score)” value [21] was -0.251. The “glycan array binding signal (z-score)” value [22] was -0.182, the “glycan array binding signal (z-score)” value [23] was 0.158 and the “glycan array binding signal (z-score)” value [24] was -0.091. The “glycan array binding signal (z-score)” value [25] was -0.164, the “glycan array binding signal (z-score)” value [26] was 0.079 and the “glycan array binding signal (z-score)” value [27] was -0.054. The “glycan array binding signal (z-score)” value [28] was 0.06, the “glycan array binding signal (z-score)” value [29] was -0.151 and the “glycan array binding signal (z-score)” value [30] was -0.309.
